In the RNAGym collection of RNA variant scans (doi:10.1073/pnas.2313332121):
This sample is rich in variants without activity.

B1: TPR 5TU (parent)
chain: GGAUCUUCUCGAUCUAACAAAAAAGACAAAUCUGCCACAAAGCUUGAGAGCAUCUUCGGAUGCAGAGGCGGCAGCCUUCGGUGGCGCGAUAGCGCCAACGUUCUCAACUAUGACACGCAAAACGCGUGCUCCGUUGAAUGGAGUUUAUCAUG

Variants of: B1
Test: polymerase ribozyme fitness, log enrichment relative to wild type (log ratio); higher = more active; in vitro selection for triplet polymerase activity
Procedure, shortened: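 Mutant libraries for each subunit of a heterodimeric triplet polymerase ribozyme were made by PCR and then transcribed. Each library underwent one round of in vitro selection in triplicate: annealing with a biotinylated primer, the partner subunit and triplets, frozen incubation at −7 °C, gel excision of extended constructs, streptavidin-bead capture and RT-PCR. Input and output libraries were Illumina-sequenced, and only genotypes with ≥10 input reads and ≥1 read per output were kept. Fitness is the logarithm, base 2, of genotype enrichment over wild-type enrichment, computed from inverse-variance-weighted replicate averages.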

Variant	polymerase ribozyme fitness (log ratio)
A41U G68U C93U A106G	≤ -4.2
G42A G88C C118U	≤ -4.2
A41G A47U G88C G133U C149A	≤ -4.2
A41U U53G A110C A115C	≤ -4.2
G42C U55A G92C A115U A150U	≤ -4.2
G42C U44A C72U C75U C96A G136A	≤ -4.2
A41C U53A U102C C103G A113U	≤ -4.2
G42C U44G A106G	≤ -4.2
G42C C131G G141U	≤ -4.2
A41U G71A C79G C95A U102C G143C	≤ -4.2
A41G C57A G59A G68U	≤ -4.2
A41U U148G	≤ -4.2
G42C C54G G58C G94C C114G C129U	≤ -4.2
G42A U44G G133A U144A	≤ -4.2
A41G G74U G133C A137C	≤ -4.2
G42A C114G G133U A150C	≤ -4.2
A41U A49C C96G A113G U135C C149U	≤ -4.2
G42A C93U A120C G141U	≤ -4.2
A41G C69A G84A G94C C125G G128A	≤ -4.2
A41C G92C U127A	≤ -4.2
G42U A52C C93U	≤ -4.2
A41U G80A	-0.78
G42C U45A U78G C79U G80C G84A	≤ -4.2
G42A A73G C96A U102G A113U	≤ -4.2

Variant	polymerase ribozyme fitness (log ratio)
G42A C87G G124A	≤ -4.2
G42C U148C	≤ -4.2
A41G C85A U101G	-1.82
A41U A60U G80U C93U	≤ -4.2
A41U G42A C79A G83U A91U C96U A98G A107C	≤ -4.2
G42A C69A G81U C87U C95G G140U	≤ -4.2
A41U C43G U102G	≤ -4.2
A41C G100A A142C	≤ -4.2
G42C U61A G74A C87U U134C	≤ -4.2
G42A A47C U56G A89G U127A G140A	≤ -4.2
A41C U44A G46A U56A G65U U102C U134A	≤ -4.2
A41U U56G G62C A91U C103U A119U	≤ -4.2
G42C U44G A49U U56C G94U U111C G143A	≤ -4.2
G42U G46C A64G G81U C87G C125U	≤ -4.2
G42A A52C C75U C85A G86C	≤ -4.2
A41U A73U	-1.65
G42U G62U C132U	≤ -4.2
G42A G50U C96A C103A U127G	≤ -4.2
G42U C76A G86C A120G G124C U144C	≤ -4.2
A41U A49C	-3.83
G42A U55A U56G A60U G133U U144A	≤ -4.2
A41G G42U C43A C57G C87G C125U	≤ -4.2
G42C A73U C85G A113U	≤ -4.2
A41U U45A C51U U127G	≤ -4.2

Variant	polymerase ribozyme fitness (log ratio)
G42A A66G G92U C108U G136A G140U G141U	≤ -4.2
A41G G50C C87A A107C C114U A119U G143U	≤ -4.2
G42C C51A U55A C95U A98C	≤ -4.2
A41U C75G G92U A97G	≤ -4.2
A41U G81A G84C C85A C96U G126A	≤ -4.2
A41U G84C C103G	≤ -4.2
G42C C95A A142C	≤ -4.2
A41C U134G	-2.46
A41C U55G C63U G83A C85U A98G C123G G140U	≤ -4.2
G42C C54A A64C U77A G83C G126A U145A	≤ -4.2
G42A C87A C99U C108A U151G	≤ -4.2
G42C G62A G68A U101G	≤ -4.2
G42C A73C C79A G83C G94A C99U C123U G143C	≤ -4.2
A41C G86U C99G G133C A138G G140U	≤ -4.2
G42A C95U A107C C114U	≤ -4.2
A41U G42A G92U C99A U101G A122U C132U	≤ -4.2
G42C C93A A147G	≤ -4.2
A41C U55A U90G G92U	≤ -4.2
A41G C93A G124U	-1.5
A41G A47C C76U C79A C96U U139C	≤ -4.2
G42A G46A G81U C96A U134A	≤ -4.2
A41C U55A C93A	-3.32
G42C G94A U102A C118U U135C	≤ -4.2
A41C U56A C57A A115U C116U	-2.62

Variant	polymerase ribozyme fitness (log ratio)
A41G G48A C87A U148C	≤ -4.2
A41G C93A C96A C103A U145A	≤ -4.2
A41C U56A G94U A98C C116G U151G	≤ -4.2
G42U A66C C95A G143A U144G	≤ -4.2
G42A G62A G68U	≤ -4.2
A41U A60G G86U U109G U144G	≤ -4.2
G42U A52G G117A	≤ -4.2
G42A U78A G81U C93U C99A C131U	≤ -4.2
A41U C54G G65C G84U G141A C149A	≤ -4.2
G42A C63G U82G C95U U111C C123G U139A	≤ -4.2
A41U A52C C93A	≤ -4.2
A41U C43U A66C G74U G81C G84A G92A G136U	≤ -4.2
G42A G62A G88A G141A	≤ -4.2
G42C G84A	≤ -4.2
G42C C131G U134C U145C	≤ -4.2
G42A A49U A60G C96U A138G	≤ -4.2
G42C U101G G136U	≤ -4.2
A41U U45A C79A C87A	≤ -4.2
G42A C51G C75G C99U	≤ -4.2
A41U A47U C79G U90C C95G C105G A106C U127A	≤ -4.2
G42C G68C G88C A107G C118U	≤ -4.2
G42A U45C C69A C132U	≤ -4.2
G42A U53G U55A G83C C85U A107U C108U G112U A142G	≤ -4.2
G42C A91G G92A U144C	≤ -4.2

Variant	polymerase ribozyme fitness (log ratio)
G42A A107C	≤ -4.2
A41G G59C U82A G83A G100C U127G A142U G152U	≤ -4.2
G42C A52C G59A G74A G92C A97C C99A C108G U111C C116A A122U A138G G141C	≤ -4.2
G42A C96G U111G A122U	≤ -4.2
G42A A52C C54A U56C G94C	≤ -4.2
A41C U53C C125G U144A	-2.53
G42C A47G G88C	≤ -4.2
A41G A47U C51U A52C G88A G136U	≤ -4.2
A41U G83U U90G C93G A106U	≤ -4.2
G42U C57A C96G C108U	≤ -4.2
G42C G48A C51G G83U U104G G126C	≤ -4.2
A41U G46A U53A C54G C57U G80U A91G U130A U139A	≤ -4.2
G42C C43U C54U A89C G94C A137U	≤ -4.2
A41U C72A U77A C99A U139C U144A	≤ -4.2
A41U C54G G88C U130A	≤ -4.2
A41G U53C U55A U82G U127G	-4.02
G42U G59U G92U G126A U135A U144A	≤ -4.2
A41U U44A G50A G70A U78C A107C U111A G128U	≤ -4.2
G42A G58A G100C	≤ -4.2
A41C G92U A138C U145A G152A	≤ -4.2
G42U C99A G136C U139A	≤ -4.2
A41U C85A A98G A122U G152U	≤ -4.2
G42C C69G G84U C99A G128U	≤ -4.2
G42A G86A	-3.97

Variant	polymerase ribozyme fitness (log ratio)
G42U A52G U55A C95U	≤ -4.2
G42C C76G C85U	≤ -4.2
G42C G59C G117U U146A	≤ -4.2
G42C A49C	≤ -4.2
G42C U44A U90G G140U A147U	≤ -4.2
G42C G94A G143A	≤ -4.2
G42C G70C C93G C129A U151G	≤ -4.2
G42C U55A C93A U146A	≤ -4.2
A41U A52G A107U G140U C149A	≤ -4.2
G42A G50U U53A U55A G83A U90C U144A	≤ -4.2
G42A G100U	≤ -4.2
G42C U53G U145G	≤ -4.2
A41U G50A C51A G86U C105G	≤ -4.2
G42A U55A A66C C75U C96A G128C U134G	≤ -4.2
G42C U55A C76G C85G U90C A97U U102C	≤ -4.2
G42A C96G A110C G152C	≤ -4.2
G42A U44A C93U C105U C123U A137C	≤ -4.2
G42C G50A C75U G88A U90A C99A A107G C108G U109C C118A A150G	≤ -4.2
A41U U111A	-3.7
G42A G141U U145G	≤ -4.2
A41C G136A	0.215
G42A G50C U55A G84A G143U	≤ -4.2
A41U G50A C99G C114A A121G C125A	≤ -4.2
A41G C75G G83C C87G C99A	≤ -4.2

Variant	polymerase ribozyme fitness (log ratio)
G42A A49U U55A U61G C85A	≤ -4.2
A41U G58C C79A	≤ -4.2
A41U C54G U78C C79G A107U C149A	≤ -4.2
A41U A91U	≤ -4.2
A41G C85G C93G C103U G112U G128U G143C	≤ -4.2
G42A G58C G59C G88C A91G A106C A107G	≤ -4.2
G42A A47U U61A C105G G143A A147C	≤ -4.2
G42A G50A G59U G67C G94U C105A G136U	≤ -4.2
A41G A49C C51A G65A A66U C87G C95A U102C C131A	≤ -4.2
G42C C75A C76G G140U	≤ -4.2
G42A U53A U61C C85U A106U U134A U144G U145C	≤ -4.2
G42U A64G A66U C79G C95U C103U A113U	≤ -4.2
A41G G86C A121C U139A C149U	≤ -4.2
G42A G74U G81A G84U A91C C99A A115U A138C A142G	≤ -4.2
G42C A47C A66G	≤ -4.2
G42C G58C A91G A107C A113G	≤ -4.2
G42C U56A G86A A91C U111A G143C	≤ -4.2
A41G C96A C149U	-0.509
G42C U61A U101A A119C	≤ -4.2
G42A C79G A91C C95A C149U U151A	≤ -4.2
A41G U56G G59A U61G C76A A91C C95G G124A	≤ -4.2
A41G C63U	0.774
G42A G58A A64C G65U G84U	≤ -4.2
